Experimental data published in PubChem BioAssay AID1159614 (National Center for Advancing Translational Sciences (NCATS), 2016).
Among all 45,000 compounds or so, about 65 (0.1%) were called active. Calls follow the shape of the dose curve; as a rule, active = well fitted activation curve with a large enough effect; inconclusive = small, poorly fitted or top-dose-only effect; inactive = no such curve, though single readings can be large or run the other way. Some of the results follow.

Target: Galactocerebrosidase (Homo sapiens) (UniProt P54803)
Assay: A Novel Cell-Based Assay to Identify Small Molecules for B -Galactocerebrosidase; also: 0% is about no effect; nearly all actives have a fitted effect of over 65% in size
Conditions: 145M-Twi-hGALC-G270D cells (Twitcher mouse brain line with human GALC G270D), HMU-beta-Gal fluorescence, 48 h; series mostly up to 57.5 µM; activation: at the top concentration
In short: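 Mutant human GALC (G270D), stably expressed in a Twitcher mouse brain cell line lacking endogenous GALC, is measured in live-treated cells via 6-hexadecanoylamino-4-methylumbelliferyl-β-galactoside hydrolysis (0.1 mM final, pH 5.2) with fluorescent detection.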

Sequence of UniProt P54803 (P54803 whole entry, looked up): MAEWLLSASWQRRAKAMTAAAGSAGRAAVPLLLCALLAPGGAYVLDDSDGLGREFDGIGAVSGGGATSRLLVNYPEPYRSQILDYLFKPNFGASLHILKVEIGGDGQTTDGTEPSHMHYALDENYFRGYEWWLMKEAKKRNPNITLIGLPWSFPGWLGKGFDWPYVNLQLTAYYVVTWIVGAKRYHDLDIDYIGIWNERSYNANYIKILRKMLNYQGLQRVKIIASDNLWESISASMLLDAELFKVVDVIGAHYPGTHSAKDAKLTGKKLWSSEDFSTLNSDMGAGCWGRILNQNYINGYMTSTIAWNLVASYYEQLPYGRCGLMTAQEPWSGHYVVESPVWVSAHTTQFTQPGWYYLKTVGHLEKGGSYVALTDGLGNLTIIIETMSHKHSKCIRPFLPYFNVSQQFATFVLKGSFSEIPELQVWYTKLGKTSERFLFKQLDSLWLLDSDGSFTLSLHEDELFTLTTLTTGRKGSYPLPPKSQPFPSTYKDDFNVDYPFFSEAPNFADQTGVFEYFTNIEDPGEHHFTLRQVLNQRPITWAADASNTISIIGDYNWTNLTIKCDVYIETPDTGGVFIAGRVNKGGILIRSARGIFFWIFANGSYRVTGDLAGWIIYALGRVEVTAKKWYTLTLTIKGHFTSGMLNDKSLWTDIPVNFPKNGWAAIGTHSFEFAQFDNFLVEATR

activation, inactive:
CC1CCN(S(=O)(=O)c2ccc3c(c2)CCN3C(=O)Nc2ccccc2Br)CC1 1.6%
Fc1ccc(N2CCN(c3nc4ccccc4c4nc(-c5ccccc5)nn34)CC2)cc1 -8.8%
COc1ccc2c(c1)cc(CNc1ccc(OC)c(OC)c1)c(=O)n2CC(=O)Nc1ccccc1C -21.4%
COc1ccc2c(c1)c1c(c(=O)n(CCc3ccccc3)c(=O)n1Cc1cccc(Cl)c1)n2C -5.84%
COc1ccc(CC(=O)Nc2nc3c(s2)CC(C)CC3)cc1 (stereo unspecified) -13.3%
Cc1ccc(NC(=O)C2CCCN(S(=O)(=O)c3ccc4[nH]c(=O)ccc4c3)C2)cc1Cl (stereo unspecified) 3.39%
CCOc1ccccc1Nc1ncnc2c1cnn2-c1ccc(C)cc1 -0.568%
COc1cc(NC(=O)c2ccc(C)c(Cl)c2)ccc1NC(=O)c1cc2ccccc2o1 -10%
CCCn1cc(S(=O)(=O)c2ccc(C)cc2)c(=O)c2cc(F)c(N3CCCC3)cc21 -27%
CC1CN(C(=O)N2CCC(C(=O)NCCCc3ccccc3)CC2)c2cc(Cl)ccc2O1 (stereo unspecified) -7.66%
O=C(NCc1cccc(Cl)c1)c1c2c(nc3ccccc13)C(=O)N(C1CCCCC1)C2 -15.9%
CC(=O)Nc1cccc(NC(=O)c2cc3c(=O)n4cccc(C)c4nc3n2C)c1 4.63%
COc1nc(C)nc(Cl)c1NC1=NCCN1 -16.1%
CCCCOc1ccc(CNC(=O)c2cccc(NC(=O)N3CCSc4ncccc43)c2)cc1 -11.5%
Cc1c(C(=O)NCc2ccc(Cl)cc2)oc2ccc3c(c12)C(=O)CC(C)(C)O3 -10.3%
Cc1ccc(CNC(=O)CSc2ncc3c(n2)-c2cc(Cl)ccc2N(C)S3(=O)=O)cc1 -14.3%
COc1cc(NC(=O)Cn2c(=O)n(CC3CCC(C(=O)NCCc4ccccc4)CC3)c(=O)c3ccccc32)cc(OC)c1 (stereo unspecified) 8.28%
CO/N=C(/C(=O)N[C@@H]1C(=O)N2C(C(=O)OCOC(=O)C(C)(C)C)=C(C)CS[C@H]12)c1csc(N)n1 -13.5%
COc1cccc(Cn2cc(C(=O)c3ccccc3)c(=O)c3cc4c(cc32)OCO4)c1 -16.1%
OCCCc1ccccc1 -16.1%
COc1ccc(-n2ncc3c(NCCCOC(C)C)ncnc32)cc1 -10.2%
O=C(CCc1nc(CN2CCN(S(=O)(=O)c3ccc(Br)cc3)CC2)no1)N1CCCCC1 5.73%
CCOc1ccccc1C1CC(=O)Nc2c1c(=O)n(C)c1ncnn21 (stereo unspecified) -17.7%
CCCCNC(=O)C1CCCN(S(=O)(=O)CCC)C1 (stereo unspecified) -16.3%
CCCCN(CC)CCCNC(=O)c1c(C)oc2ncnc(N3CCOCC3)c12 -0.449%
COc1ccc(-n2c(C)nc3c(cnn3-c3ccc(F)cc3)c2=O)cc1 -13.9%
CCc1nn2c(=O)cc(COC(=O)c3cccc(NC(=O)CCc4ccccc4)c3)nc2s1 -17.9%
CCc1ccc(C(=O)c2cn(CC(=O)Nc3ccc4c(c3)OCCO4)c3ccc(F)cc3c2=O)cc1 1.56%
Cc1ccc(NCc2cccn2-c2nnc(N3CCC(C(=O)NCCc4ccc(Cl)cc4)CC3)s2)cc1 -6.39%
CCc1nn(CC(=O)NCCc2ccc(OC)cc2OC)c(=O)c2cc3occc3n12 -2.88%
COc1cc2c(=O)n(CCC(=O)NCC3CCCO3)c(=O)n(CC(=O)Nc3ccccc3C)c2cc1OC (stereo unspecified) -4.62%
CCCCc1ccc(-n2nc3cc(C)c(NC(=O)c4ccc(C#N)cc4F)cc3n2)cc1 -11.7%
COc1ccccc1CNC(=O)C1CCN(c2nc3ccc(Cl)cc3[nH]2)CC1 4.68%
CCn1cc(/C=C(\NC(=O)c2ccc(OC)cc2)C(=O)NCCCn2ccnc2)c2ccccc21 -23.7%
COc1cc2nc(N3CCN(C(=O)c4ccco4)CC3)nc(N)c2cc1OC -6.85% [at 23.8 µM]
NCCS(=O)(=O)O -34.8%
COc1ccccc1NC(=O)Cn1c(SCC(=O)Nc2ccc(F)cc2)nc2ccccc21 -12%
Cc1nc2ccn(Cc3ccccc3)c(=O)c2cc1C(=O)N1CCN(c2ccc(F)cc2)CC1 6.53%
CC(Sc1nnc2ccc3ccccc3n12)C(=O)Nc1ccc(Cl)cc1 (stereo unspecified) -9.39%
CCCCS(=O)(=O)N[C@@H](Cc1ccc(OCCCCC2CCNCC2)cc1)C(=O)O -9.61%
CCOC(=O)c1cnc2cc(-c3ccc(OCC)cc3)nn2c1-c1ccccc1 -13.1%
COCCc1nn2c(=O)cc(COC(=O)C(c3ccccc3)c3ccccc3)nc2s1 -18.6%
Cc1cc(NC(=O)n2ncc3c(C)cccc32)ccc1Br -4%
COc1ccc(C)cc1NC(=O)C(=O)NCC(c1cccnc1)N1CCc2ccccc21 (stereo unspecified) -9.36%
COc1ccc(NC(=O)CSc2nccn2Cc2ccc3c(c2)OCO3)cc1 -12.6%
CCn1cc(C(=O)O)c(=O)c2cnc(N3CCNCC3)nc21 -12.9%
O=C1CC(c2ccccc2)Sc2ccccc2N1Cc1ccc(F)cc1 (stereo unspecified) -7.04%
Cc1ccc(-n2c3c(cc(C(=O)Nc4ccccc4C(N)=O)c2=O)C(=O)CC(C)(C)C3)cc1 -1.4%
CCOc1ccccc1NC(=O)c1c(NC(=O)COc2ccccc2)sc2c1CCCC2 -1.2%
Cc1cc(C)c(NC(=O)CSc2ccc(-c3ccccn3)nn2)c(C)c1 -2.52%
CN(C)CCNC(=O)CN1C(=O)COc2ccc(S(=O)(=O)N3CCCC3)cc21 -13.8%
COc1ccc(C2=Nc3ccccc3NC(c3cccs3)=N2)cc1 -25.6%
COc1cccc(NC(=O)CCC(=O)N2Cc3ccccc3Oc3ncccc32)c1 -17.8%
CCNS(=O)(=O)c1ccc(NC(=O)CSc2nc(-c3ccco3)cc(C(F)(F)F)n2)cc1 -0.0273%
COc1ccccc1CNC(=O)c1c[nH]c2ccc(S(=O)(=O)Nc3cc(C)cc(C)c3)cc2c1=O -3.59%
CCCOc1ccc(CNC(=O)CCCn2ncn3c(cc4sc(CC)cc43)c2=O)cc1 -9.37%
Cc1cccc(Nc2nnc(-c3ccc(C)c(S(=O)(=O)N4CCCCC4)c3)c3ccccc23)c1 -20.7%
CC(C)OC(=O)c1cccc(NC(=O)Cn2nnc3sc4c(c3c2=O)CCCC4)c1 -1.58%
Cc1ccc(-n2cc(-c3ccccc3)c3c(N4CCCCC4)ncnc32)cc1 -13.2%
Cc1ccc(CNC(=O)CSc2nc3ccsc3c(=O)n2Cc2ccccc2F)cc1 23.8%
CCN(CC)c1ccc(NC(=O)c2cccn2-c2nnc(N3CCCCC3)s2)c(C)c1 -18.8%
Cc1ccc(S(=O)(=O)N2CCN(C(=O)c3cc(-c4ccc(Br)cc4)n[nH]3)CC2)c(C)c1 7.09%
Cc1ccc(NC(=O)C(Cc2ccccc2)NS(=O)(=O)c2ccc3c(c2)c(=O)n(C)c(=O)n3C)c(C)c1 (stereo unspecified) -11.7%
Cc1c(Cl)cccc1-n1ncc(C(=O)N2CCN(c3ncccn3)CC2)c1C1CCN(C(=O)OC(C)(C)C)CC1 15.1%
CCN(C(=O)c1cn(CC)c(=O)c2cc(OC)c(OC)cc12)c1ccccc1F -1.81%
Cc1cccc(NC(=O)C(=O)NCCc2csc(-c3ccc(F)cc3)n2)c1C -21.8%
COc1ccc(CCC(=O)NC2CC(=O)N(c3ccc(OC)cc3)C2)cc1 (stereo unspecified) 6.07%
Cc1cc(C)c2c(=O)cc(CSc3n[nH]c(C)n3)[nH]c2c1 -3.36%
CCC(C(=O)Nc1cc(F)ccc1F)n1nc(C)c2c(C)n(-c3ccc(C)cc3)nc2c1=O (stereo unspecified) -9.1%
COc1ccc(NC(=O)CN2C(=O)c3cccnc3Sc3ccccc32)cc1OC -12.8%
CC1=C(C(=O)Nc2cc(Cl)ccc2C)C(c2cccs2)n2ncnc2N1 (stereo unspecified) -22.4%
Cc1cccc(N2CCN(C(=O)c3ccc(Nc4nc5ccccc5n5nnnc45)cc3)CC2)c1C -13.5%
CCOC(=O)c1ccc(NC(=O)C2=C(C)Nc3nc(CCCO)nn3C2c2ccc(OC)cc2)cc1 (stereo unspecified) -17.8%
Cc1cc(N2CCCCC2)nc2ccc(NC(=O)CCC(=O)N3CCN(c4ccccc4)CC3)cc12 -26.5%
COc1cc(C(=O)Nc2ccccc2-c2nc(-c3ccc(C)cc3)no2)cc(OC)c1OC -9.12%
O=C(CSCc1ccc(F)cc1)N1CCc2c([nH]c3ccccc23)C1c1ccc(Cl)cc1 (stereo unspecified) -9.8%
COc1ccc(CCNC(=O)C(C)n2c(=O)cc(-c3ccccc3)c3c(C)nn(C)c32)cc1OC (stereo unspecified) -5.08%
CCSc1nc(-c2ccccc2F)nc2c1Cc1c(CO)cnc(C)c1O2 -12.5%
COc1cccc(N2CCN(C(=O)c3nn(C)c4c3CSc3ccc(C)cc3-4)CC2)c1 -17.2%
CCC(=O)N1CCc2cc(CNC(=O)c3ccc(F)cc3)ccc21 -8.08%
Cc1ccc(-c2nc3sccn3c2Nc2ccc(C)c(C)c2)cc1 1.64%
CCOc1ccc(N(CC)C(=O)c2cc3c(s2)-c2ccccc2OC3)cc1 -0.474%
CC1CCN(c2nc3ccc(C(=O)N4CCN(c5ccccc5)CC4)cc3s2)CC1 -9.76%
CCOC(=O)c1cc(OC(=O)c2ccccc2Cl)n(-c2ccccc2)n1 -18%
COc1ccc(OC)c(NC(=O)[C@H](CSCc2ccccc2)N2Cc3ccccc3C2=O)c1 -10.8%
COC(=O)c1cc2sc(Cl)cc2n1CC(=O)Nc1cc(C)cc(C)c1 -34.1%
O=C(NCc1ccccc1F)c1ccc(CSc2nc3cccnc3n2Cc2ccccc2)cc1 -11.9%
Cc1nn2c(=O)cc(COC(=O)c3ccccc3NC(=O)COc3ccccc3C)nc2s1 -7.07%
Cc1ccc(SCc2nc(-c3ccc(C(=O)NCCc4ccc(Cl)cc4)cc3)oc2C)cc1 -10.8%
CCN(CC)CCOc1ccc(Cc2ccccc2)cc1 -4.99%
Cc1ccccc1NC(=O)Cn1c(=O)n(Cc2ccccc2)c(=O)c2c(C)c(C)sc21 -8.58%
N#CC1=C2SCN(C3CCCCC3)CN2C(=O)CC1c1ccc(Cl)cc1 (stereo unspecified) -5.12%
COC(=O)c1cc2occc2n1CC(=O)Nc1ccc(N(C)C)cc1 -7.92%
Cc1ccc(CNC(=O)Cn2c(=O)n(-c3ccc(C)cc3)c(=O)c3c2c2cc(C)ccc2n3C)cc1 12.1%
Cc1ccc(CNC(=O)C(=O)NCC(c2ccco2)S(=O)(=O)c2ccccc2)cc1 (stereo unspecified) -8.56%
N#Cc1nc(-c2ccc(COc3ccccc3)o2)oc1N1CCCCC1 -4.9%
